Experimental findings from patent US10233255B2, “Antibody therapeutics that bind STAT3” (Sorrento Therapeutics, Inc., priority 2016, dated 2019) are described below.

In the test the target is STAT3 (Homo sapiens, UniProt P40763). In words: Cell binding assay on fixed, permeabilized human cells (PE anti-human IgG, flow cytometry). The arrangement: endogenous in cells; host or cells: MDA-MB-468 (also given as MDA-MB-435), U251, HeLa. The procedure:
Next, the binding of the candidate anti-STAT3 antibodies to cellular targets was tested in cell binding assays using MDA-MB-435 breast cancer cells and U251 cells. The cells were seeded overnight in a 96 well plate, then fixed with PFA and permeabilized with methanol. Cells were incubated with serial dilutions of the anti-STAT3 antibody candidates ST1A5, ST3G12 and ST5G12 for one hour and 30 minutes. Following incubation, the cells were washed and incubated for 30 minutes with phycoerythrin (PE) conjugated anti-human IgG. Fluorescence was measured on an Intellicyte high-throughput flow cytometry analyzer. […] Bevacizumab (Avastin), a monoclonal antibody that inhibits vascular endothelial growth factor A (VEGF-A) was used as a negative control.
An isotype control was used as a negative control. The experimental procedure was the same as described above for FIGS. 3A and 3B.
(Flow cytometry measures light scatter and fluorescence of single cells or particles in a stream.)

STAT3, sequence (P40763 whole entry): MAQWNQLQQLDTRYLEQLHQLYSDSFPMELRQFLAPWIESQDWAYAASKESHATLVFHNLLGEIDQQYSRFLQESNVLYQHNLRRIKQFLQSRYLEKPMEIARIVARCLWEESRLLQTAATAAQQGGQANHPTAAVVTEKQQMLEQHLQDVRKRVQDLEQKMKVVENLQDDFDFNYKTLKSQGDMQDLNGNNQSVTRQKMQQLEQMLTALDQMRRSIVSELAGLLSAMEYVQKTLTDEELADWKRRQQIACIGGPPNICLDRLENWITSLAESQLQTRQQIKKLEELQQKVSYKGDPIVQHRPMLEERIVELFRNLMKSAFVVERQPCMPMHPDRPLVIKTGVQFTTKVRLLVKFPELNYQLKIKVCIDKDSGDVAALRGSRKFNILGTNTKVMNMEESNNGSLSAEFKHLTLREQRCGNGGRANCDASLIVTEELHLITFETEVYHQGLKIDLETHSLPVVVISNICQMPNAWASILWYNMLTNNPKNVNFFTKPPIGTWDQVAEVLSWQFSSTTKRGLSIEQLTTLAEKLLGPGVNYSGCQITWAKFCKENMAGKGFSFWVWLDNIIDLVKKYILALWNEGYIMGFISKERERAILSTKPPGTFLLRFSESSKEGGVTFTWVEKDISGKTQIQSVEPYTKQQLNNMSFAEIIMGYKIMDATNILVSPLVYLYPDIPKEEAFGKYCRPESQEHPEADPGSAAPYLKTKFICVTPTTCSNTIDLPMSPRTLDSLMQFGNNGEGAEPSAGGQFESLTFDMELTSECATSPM

B1: ST1A5: fully human anti-STAT3 antibody, heavy/light chain variable domains SEQ ID NO. 1/SEQ ID NO. 2 (antibody, V domains shown)
VH: [about 100 residues left out here]DGGLGWGTYFRLGDAFDIWGQGTMVTVSS
VL: QSVLTQPPSVSKGLRQTATLTCTGNSNNVGNEGAAWLQQHQGHPPKLLSYRNFNRPSGISERFSASRSGNTASLTITGLQPEDEADYYCSAWDSSLSAWVFGGGTKLTVL
Take B1: the “STAT3 binding in MDA-MB-468 cells” value (MDA-MB-468 cells, FIG. 3A) is given as “did not show strong STAT3 binding”. For the same molecule, where the note is “U251 cells, FIG. 3B / 3C”, the “STAT3 binding in U251 cells” value is on record as “did not show strong STAT3 binding”.
